We go through 89 molecules from paper PMC4336329 (PLoS ONE, 2015).

Among all 310,000 compounds or so, about 14,000 (4.5%) showed an effect of 50% or more. Effects have a minus sign here. The list shows a part of the results.
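Also: peak tail current of the secondary pulse compared with the same well before compound.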

Sequence of human ether-à-go-go-related gene (hERG) potassium channel (Q12809 whole entry, looked up): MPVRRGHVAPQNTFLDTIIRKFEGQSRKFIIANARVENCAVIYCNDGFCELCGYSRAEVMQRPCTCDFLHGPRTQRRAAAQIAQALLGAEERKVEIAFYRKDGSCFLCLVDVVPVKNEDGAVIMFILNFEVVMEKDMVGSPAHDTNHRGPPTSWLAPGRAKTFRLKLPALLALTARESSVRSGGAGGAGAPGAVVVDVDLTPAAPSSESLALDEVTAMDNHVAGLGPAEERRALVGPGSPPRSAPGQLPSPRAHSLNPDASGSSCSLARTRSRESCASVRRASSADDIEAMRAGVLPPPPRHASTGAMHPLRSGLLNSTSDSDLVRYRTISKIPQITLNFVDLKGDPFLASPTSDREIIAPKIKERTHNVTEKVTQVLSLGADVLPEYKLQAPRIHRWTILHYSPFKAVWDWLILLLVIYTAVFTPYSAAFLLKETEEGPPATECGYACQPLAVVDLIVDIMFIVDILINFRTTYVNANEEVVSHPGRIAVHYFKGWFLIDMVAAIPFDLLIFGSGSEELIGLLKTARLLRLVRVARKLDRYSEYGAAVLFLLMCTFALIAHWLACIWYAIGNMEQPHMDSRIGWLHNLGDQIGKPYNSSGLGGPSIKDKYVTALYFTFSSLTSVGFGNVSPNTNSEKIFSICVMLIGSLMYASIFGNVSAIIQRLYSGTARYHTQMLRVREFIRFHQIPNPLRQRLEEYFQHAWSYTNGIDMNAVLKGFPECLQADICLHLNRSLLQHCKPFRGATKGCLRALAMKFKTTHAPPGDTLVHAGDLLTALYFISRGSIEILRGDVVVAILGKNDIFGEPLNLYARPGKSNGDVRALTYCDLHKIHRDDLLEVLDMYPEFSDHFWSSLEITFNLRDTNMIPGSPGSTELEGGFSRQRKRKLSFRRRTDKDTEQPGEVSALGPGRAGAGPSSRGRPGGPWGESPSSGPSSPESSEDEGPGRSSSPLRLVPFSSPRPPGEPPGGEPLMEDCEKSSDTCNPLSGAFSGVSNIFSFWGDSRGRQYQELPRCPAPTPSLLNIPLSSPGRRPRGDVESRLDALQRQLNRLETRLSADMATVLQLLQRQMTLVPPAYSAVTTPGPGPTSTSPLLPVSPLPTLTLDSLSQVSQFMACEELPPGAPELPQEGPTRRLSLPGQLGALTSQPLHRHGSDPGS

This assay concerns the target human ether-à-go-go-related gene (hERG) potassium channel (human, UniProt Q12809). As to the kind of experiment: primary screen, population patch clamp on CHO cells stably expressing hERG.
Take `Cc1cccc(C)c1NC(=O)CSCC(=O)c1ccc(O)c(O)c1`: the “hERG current change (%, negative = inhibition) at 10uM” value was determined as 16%. Consider `O=C(Nc1ccc(S(=O)(=O)N2CCOCC2)cc1)c1ccccc1F`, for which the “hERG current change (%, negative = inhibition) at 10uM” value came out at 6.32%. Then `CSc1ccccc1C(=O)NC1CC2CCC1C2` (centres unmarked), with -4.16%; and `C=CCOc1ccc(C2=NOC(C(=O)Nc3ccc4c(c3)OCCO4)C2)cc1OC` (centres unmarked), with 20.3%. For `CC1=NN(C(N)=S)C(=O)C1N=Nc1cccc(C)c1` (centres unmarked), the “hERG current change (%, negative = inhibition) at 10uM” value is on record as 6.22%.

With `COCCCn1c(SCC(=O)n2c(C)c(C)c3ccccc32)nnc1-c1ccoc1C`, the “hERG current change (%, negative = inhibition) at 10uM” value is on record as -24.6%. The figure for `O=S(=O)(NCc1cccs1)c1ccc(Br)s1` is 2.07%; for `Cc1noc(C)c1S(=O)(=O)N(CC(=O)NCc1ccc(Cl)cc1)c1ccc2c(c1)OCO2` it is -19%. The figure for `CN(C)S(=O)(=O)c1cccc(NC(=O)Cn2cnc3ccccc3c2=O)c1` is 8.28%; for `COc1ccc(S(=O)(=O)Cc2ccc(C(=O)N3CCN(Cc4ccccc4)CC3)o2)cc1` it is -33.1%; for `Cn1cc(/C=C2\SC(=O)N(c3ccc(O)cc3)C2=O)c2ccccc21` it is 1.68%. Consider `COC(=O)c1cc(OC)c(OC)cc1NC(=S)N1CCN(c2ccccn2)CC1`, for which the “hERG current change (%, negative = inhibition) at 10uM” value is -6.01%.

Take `O=C(CN1CC(c2ccccc2)CC1=O)Nc1cccc(F)c1` (centres unmarked): the “hERG current change (%, negative = inhibition) at 10uM” value is 1.4%.

Regarding `Cn1cc(C(=O)N/N=C/c2ccc([N+](=O)[O-])cc2)c2ccccc21`, the “hERG current change (%, negative = inhibition) at 10uM” value came out at 1.98%.

Turning to `COc1ccccc1CNC(=O)COC(=O)CCN=C1NS(=O)(=O)c2ccccc21`, the “hERG current change (%, negative = inhibition) at 10uM” value is recorded as -4.7%. Then `O=C(N/N=C/c1cccnc1)c1cc(-c2ccc(Cl)cc2)nc2ccccc12`, with -1.5%. Regarding `Cc1[nH]nc(-c2ccc(O)c(C)c2O)c1Oc1ccccc1`, the “hERG current change (%, negative = inhibition) at 10uM” value is reported as -10%. Then `CCN(CC)C(=O)COc1cccc2ccccc12`, with 15.1%.

On to `O=C(OCn1nnc2ccccc2c1=O)C1CCCCC1`, for which the “hERG current change (%, negative = inhibition) at 10uM” value was determined as 5.57%. The figure for `CC(C)CCNC(=O)C1CCCN1C(=O)NC1CCCCC1` (centres unmarked) is 4.74%; for `COC(=O)c1ccc(NC(=S)N2CCN(Cc3ccccc3)CC2)cc1` it is -4.66%; for `CCc1nn2c(N)c(/C=C3\C=Nc4ccccc43)c(=O)nc2s1` it is 10.3%. Take `COc1cccc(C(=O)NCc2cccnc2)c1`: the “hERG current change (%, negative = inhibition) at 10uM” value came to 1.54%.

Turning to `CCC1=NN2C(=N)/C(=C/c3cc(C)n(Cc4ccccc4)c3C)C(=O)N=C2S1`, the “hERG current change (%, negative = inhibition) at 10uM” value is given as 8.33%.

As for `O=C(CN(c1ccc(Cl)cc1)S(=O)(=O)c1ccccc1)N1CCN(c2ccccc2)CC1`, the “hERG current change (%, negative = inhibition) at 10uM” value was -17.4%. Then `Cc1cc(C)c(S(=O)(=O)N2CCN(S(=O)(=O)N3CCOCC3)CC2)c(C)c1`, with -2.92%; and `CCN(C(=S)NC(=O)C1CC1)c1ccccc1`, with 11.3%; and `CC(C)CCN1C(=O)c2ccc(C(=O)Nc3ccc(Br)cc3C(=O)O)cc2C1=O`, with 26.4%. On to `Fc1ccc2[nH]c3c(N4CCN(c5ccccc5)CC4)ncnc3c2c1`, for which the “hERG current change (%, negative = inhibition) at 10uM” value is given as 5.28%. Then `CCCNCc1nnc(-c2ccccc2Cl)o1`, with 10.3%. Then `O=C(CCCSc1nc2ccccc2[nH]1)NC1CCCCC1`, with 8.95%; and `COCc1nc(-c2ccc(-c3ccc(OC)cc3)nc2OC)no1`, with 10.6%. Then `C=CCC(=O)N(CC)CC1CCCN(CCc2cccc(F)c2)C1` (centres unmarked), with -54.2%; and `Cc1ccc(-n2c(=S)[nH]c3sc4c(c3c2=O)CCc2ccccc2-4)cc1`, with 26.2%; and `COC(=O)C1=C(C)N=C2SCCC(=O)N2C1c1ccc(C(=O)OC)cc1` (centres unmarked), with -32.2%. Regarding `CCOC(=O)c1ccccc1Nc1cn(C(C)=O)c2ccccc12`, the “hERG current change (%, negative = inhibition) at 10uM” value turned out to be 17.2%. For the molecule `Cc1cc(C(=O)NCC2CCCO2)n(-c2ccccc2)n1` (centres unmarked), the “hERG current change (%, negative = inhibition) at 10uM” value is reported as -3.55%. `COc1ccc(N(CC(=O)NCc2ccccc2Cl)S(=O)(=O)c2c(C)noc2C)cc1`: the “hERG current change (%, negative = inhibition) at 10uM” value was -15.2%.

`O=C1CC(c2ccccc2)n2ncnc2N1` (centres unmarked): the “hERG current change (%, negative = inhibition) at 10uM” value is -3.5%. The figure for `Cc1ccc(N2C(=O)N(CC(=O)NC(c3ccccc3)c3ccccc3)C(=O)C2C)cc1` (centres unmarked) is -32.6%; for `CCN(CC)CCCNC(=O)C1c2cc(OC)c(OC)cc2C(=O)N(C)C1c1cccnc1` (centres unmarked) it is 23.4%; for `COC(=O)c1ccc2c(c1)C(=O)N(C1CCCCC1)C2=O` it is 9.33%. Then `Cc1ccc(-n2c(C)c3c(C)nnc(C)c3c2C)cc1N`, with -15.1%.

In the case of `O=C(CNc1ccc2ccccc2c1)N/N=C/C=C/c1cccc([N+](=O)[O-])c1`, the “hERG current change (%, negative = inhibition) at 10uM” value is -0.672%. The figure for `O=C(N/N=C/c1cccc([N+](=O)[O-])c1)c1cnccn1` is -2.47%. The figure for `COc1cc2c(cc1N/C=C(\C#N)c1nc(-c3ccccc3)cs1)oc1ccccc12` is 3.17%.

Regarding `Cc1nnc(N(C)C(=O)c2cnccn2)s1`, the “hERG current change (%, negative = inhibition) at 10uM” value came out at 5.37%. Then `CC1CCCCN1C(=O)CSc1nnc(-c2cccs2)o1` (centres unmarked), with -0.927%; and `Cc1ccc(CNS(=O)(=O)c2ccc3c(c2)NC(=O)CO3)cc1`, with 10.7%. Regarding `O=C(O)CCC(=O)N1N=C(c2cccs2)CC1c1ccc(Br)cc1` (centres unmarked), the “hERG current change (%, negative = inhibition) at 10uM” value is given as -5.45%. Take `N#CC(CCN1CCOCC1)(c1ccccc1)c1ccccc1`: the “hERG current change (%, negative = inhibition) at 10uM” value was -20.8%. The figure for `CCOc1ccc(N(CC(=O)NCc2cccnc2)S(=O)(=O)c2ccc(F)cc2)cc1` is -13.6%. Regarding `Cc1cc(-c2ccc(Cl)s2)n[nH]1`, the “hERG current change (%, negative = inhibition) at 10uM” value was 8.34%.

On to `C/C(=N\OCC(=O)Nc1ccccc1Br)c1cccs1`, for which the “hERG current change (%, negative = inhibition) at 10uM” value is 10.5%.

Take `O=C(CN1C(=O)NC2(CCCCC2)C1=O)Nc1cccc(S(=O)(=O)N2CCCC2)c1`: the “hERG current change (%, negative = inhibition) at 10uM” value is on record as -16.4%. The figure for `Cc1nc(SCC(=O)Nc2ccc(CN3CCCC3)cc2)c2c(C)c(C)sc2n1` is -35.3%. The figure for `Cc1nc(N/N=C/c2ccccn2)sc1C` is 13.6%; for `COCCCN=C(c1ccco1)n1c(=S)nc(-c2ccco2)n(CCCOC)c1=S` it is -38.5%; for `COc1ccc(Cc2nnc(SCC(=O)N3CCCC3)o2)cc1` it is 2.54%.

As for `CC12CCC(C(=O)N3CCCc4ccccc43)(OC1=O)C2(C)C` (centres unmarked), the “hERG current change (%, negative = inhibition) at 10uM” value is 29.8%. As for `CCN(CC)S(=O)(=O)c1cc([N+](=O)[O-])ccc1NNC(=O)Nc1ccccc1OC`, the “hERG current change (%, negative = inhibition) at 10uM” value is 1.97%.

For `Cc1ccc(S(=O)(=O)N2CCCC2C(=O)Nc2cc(C)on2)cc1` (centres unmarked), the “hERG current change (%, negative = inhibition) at 10uM” value is -1.05%. The figure for `COc1cccc(C(=O)COc2ccccc2N2C(=O)C3C4C=CC(C4)C3C2=O)c1` (centres unmarked) is -10.2%; for `Cc1nc2c(Cl)cc(Cl)cc2[nH]1` it is -0.654%. `Cc1ccc(C(=O)Nc2nc3ccc(S(C)(=O)=O)cc3s2)s1`: the “hERG current change (%, negative = inhibition) at 10uM” value amounted to 9.26%. Then `COC(=O)N1CC=CC1(C)C(=O)NCc1cc(F)cc(C(F)(F)F)c1` (centres unmarked), with 10.8%; and `Cc1ccccc1CNc1nnnn1C`, with 12.4%; and `O=C1CN=C(c2ccccc2)c2c(sc3c2CCCC3)N1`, with 8.1%.

In the case of `O=C(/C=C/c1cccc(Cl)c1)NCc1cccs1`, the “hERG current change (%, negative = inhibition) at 10uM” value is listed as -26.6%. Then `Cc1cccc2cc(CN(CC3CCCO3)C(c3nnnn3Cc3ccco3)C(C)C)c(=O)[nH]c12` (centres unmarked), with -3.56%; and `CN1CCN(NC(=O)CC(C)(C)C)CC1`, with 22.9%; and `CN(C)C/C=C(\c1ccc(Br)cc1)c1cccnc1.Cl.O`, with -63.7%.

`OC(COc1cccc2ccccc12)CN1CCN(c2ccccc2)CC1` (centres unmarked): the “hERG current change (%, negative = inhibition) at 10uM” value was -33.2%. The figure for `CC(C)c1ccc(/C=C2\C(=N)N3N=C(CC(=O)N4CCCCC4)SC3=NC2=O)cc1` is 14.2%; for `CC1(OC(=O)C2CCCC2)C(=O)C=C2C=C(C3CC3)OC=C2C1=O` (centres unmarked) it is 2.82%; for `O=C(O)c1c(-n2cccc2)sc2c1CCCC2` it is 24.4%. The figure for `COC(=O)C1=C(O)CSC1=Nc1ccccc1` is -14.3%; for `O=C(c1ccccc1)c1nn(-c2ccc(Cl)cc2)cc1C(=O)c1cc2ccccc2oc1=O` it is 6.29%; for `O=C(CCNC(=O)C1CCN(S(=O)(=O)c2ccccc2)CC1)NCc1ccccn1` it is 24.1%. On to `O=c1c(-c2cnn(-c3ccccc3)c2)coc2cc(O)ccc12`, for which the “hERG current change (%, negative = inhibition) at 10uM” value is on record as 2.55%. The figure for `CCOC(=O)C1CCCN(C(=O)/C=C/c2cccc([N+](=O)[O-])c2)C1` (centres unmarked) is -41.8%.

Turning to `Cc1noc(C)c1COc1cccc(C(=O)OC(C)C(=O)Nc2ccc3c(c2)OCO3)c1` (centres unmarked), the “hERG current change (%, negative = inhibition) at 10uM” value was -61.2%.

For `CCOc1ccc(S(=O)(=O)Nc2ccc(Cl)cn2)c(C)c1C`, the “hERG current change (%, negative = inhibition) at 10uM” value amounted to 11.3%. The figure for `Cc1cc(C)c2nc(-c3ccccn3)cc(C(=O)Nc3ccc(S(=O)(=O)Nc4onc(C)c4C)cc3)c2c1` is -2.33%. Regarding `CCOc1cc(C(=O)N/N=C\c2cn(CC)nc2C)cc(OCC)c1OCC`, the “hERG current change (%, negative = inhibition) at 10uM” value worked out at 10.5%.

On to `COc1ccc(/C=N/Nc2nncc3ccccc23)c(OC)c1`, for which the “hERG current change (%, negative = inhibition) at 10uM” value amounted to 10.7%. The figure for `CCOC(=O)C1(Cc2ccccc2C(F)(F)F)CCN(C(=O)c2cc(C)n(C)n2)CC1` is -22.6%. Then `O=C(O)CC(NC(=O)CCC1CCCCC1)c1cc([N+](=O)[O-])ccc1Cl` (centres unmarked), with 16.5%. The figure for `Cc1ccc(S(=O)(=O)N2CCN(C(=O)CCC(=O)NC3CCCc4ccccc43)CC2)cc1` (centres unmarked) is -17.3%.
